The list shows a part of the results.
What follows are sequences tested against T1, OsWOX13 (Oryza sativa, UniProt Q5QMM3 1-267) (assay: protein-binding microarray (RPBM); PBS, 2% BSA, 51.3 ng/ul salmon testes DNA, 50 uM zinc acetate, 200 nM TF, 25 C, 1 h; high values mean tight binding). Conditions: protein: recombinant; tags: N-terminal polyhistidine and DsRed monomer fusion (pET32a); label: CyDye5-dUTP incorporated in the synthesized complementary strand; 3' TTTTT single-stranded linker to array surface; dsDNA, one strand shown.
T1 sequence: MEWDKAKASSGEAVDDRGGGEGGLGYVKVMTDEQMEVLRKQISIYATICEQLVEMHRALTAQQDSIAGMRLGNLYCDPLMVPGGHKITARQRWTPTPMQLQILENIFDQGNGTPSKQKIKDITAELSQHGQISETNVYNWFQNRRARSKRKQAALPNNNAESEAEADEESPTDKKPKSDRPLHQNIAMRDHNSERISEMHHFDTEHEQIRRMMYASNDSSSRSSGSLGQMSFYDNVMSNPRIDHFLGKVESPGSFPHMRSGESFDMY
Summary of the method: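 The binding signal for each feature is its fluorescence intensity in arbitrary units. An Axon 4000B scanner was used to read a custom Agilent array that had been made double-stranded with Cy5-dUTP primer extension, blocked with 2% BSA, incubated at 25 °C for 1 h with 200 nM protein in PBS, 2% BSA, salmon testes DNA and 50 µM zinc acetate, and washed. The protein was an N-terminal polyhistidine–DsRed transcription factor fusion from E. coli BL21-CodonPlus, purified on Ni–NTA.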

Sequence | binding signal
AGAGTAATGACTGTGATAGTGGTATTGACAATGCTAGTACCGGAGTCACCTAGTGCAG | 11600 fluorescence intensity (a.u.)
TCAGTAAATTAGTTATCATTGGCACATAATTTAGCGTCCTCGGAGTCACCTAGTGCAG | 27700 fluorescence intensity (a.u.)
ATAAAATATATTAATTAATTAGCTCAACCTGGCCAATTTCCGGAGTCACCTAGTGCAG | 35700 fluorescence intensity (a.u.)
TTTGTTATTGACAACTTTTCCATTTGAAATCATTTACTACCGGAGTCACCTAGTGCAG | 4130 fluorescence intensity (a.u.)
TTGATTGAAACACTGATGGGACTTGCATACTGCCTTATACCGGAGTCACCTAGTGCAG | 45100 fluorescence intensity (a.u.)
CTGTAACATCACATTATCAAATCATATCGTAATTAGGCTCCGGAGTCACCTAGTGCAG | 8230 fluorescence intensity (a.u.)
AATCATGAGATGCCGTGATTAGTAGTTGGGTCGGAGGCCCCGGAGTCACCTAGTGCAG | 4090 fluorescence intensity (a.u.)
TTTAATTCATCAATTTATATAGTGCTGCAAATGTAGTAATCGGAGTCACCTAGTGCAG | 11900 fluorescence intensity (a.u.)
CAATGTGACTGACACAAACATTTCAGGTCGACTTCCCCAGCGGAGTCACCTAGTGCAG | 14500 fluorescence intensity (a.u.)
TCACGTAGACGGCGCGGTGATTAGTTAATCATTGTTGTTCCGGAGTCACCTAGTGCAG | 5780 fluorescence intensity (a.u.)
TGTGATAGATTGTGCAAAATATATGTAGTTTTATGAAATTCGGAGTCACCTAGTGCAG | 14400 fluorescence intensity (a.u.)
CAAACTGATGAGGCCAACAATATCTGGTCCATCTGAATCACGGAGTCACCTAGTGCAG | 3790 fluorescence intensity (a.u.)
TTTCGTGATTTTCCCCGGTTGGCCACTACTTTTGCGATTTCGGAGTCACCTAGTGCAG | 9240 fluorescence intensity (a.u.)
ATGACTGTGAAGTCTGACTGTCTGAGTGTCTGCTTCATCACGGAGTCACCTAGTGCAG | 5010 fluorescence intensity (a.u.)
AGTTTAATTTGGAGCACACATTTCAGCTCACCACTGCTAGCGGAGTCACCTAGTGCAG | 13300 fluorescence intensity (a.u.)
ATTCTGATTATGCTCATGCTCTTTTAGGTGAGGAGTTGTCCGGAGTCACCTAGTGCAG | 15600 fluorescence intensity (a.u.)
CAAAATTGATGGCAGACAGTGAAAATTCATACCCGGCGCTCGGAGTCACCTAGTGCAG | 45600 fluorescence intensity (a.u.)
AGTTCAATCAAACTTGGATGGAGAAATGACCAAAAGAAAACGGAGTCACCTAGTGCAG | 5550 fluorescence intensity (a.u.)
TATATAATAATTACAATGTAATTGTAGGTAAGTTATAGAGCGGAGTCACCTAGTGCAG | 12300 fluorescence intensity (a.u.)
GCAGAAATGCAATCAATTAAGCACTTGTAGGTCGTCTGACCGGAGTCACCTAGTGCAG | 32100 fluorescence intensity (a.u.)
TAGCAGTATTAATTAATTTGCAAAAGTTATAATTATCTCACGGAGTCACCTAGTGCAG | 12100 fluorescence intensity (a.u.)

Sequence | binding signal
TCCCTGAATTTTAGGAGTGATTGGACCTAAAGTTGAGGAGCGGAGTCACCTAGTGCAG | 17200 fluorescence intensity (a.u.)
ATGAGTGAAATTAGAGCACCCTGTAAACATATCCTCATTTCGGAGTCACCTAGTGCAG | 8270 fluorescence intensity (a.u.)
TAAAATATAAATTTTATATAGTTCAATCAAACTCGGATGGCGGAGTCACCTAGTGCAG | 7210 fluorescence intensity (a.u.)
GACCTCTTAATTGAAAATTTTGATCTCTGACCTGTGATCTCGGAGTCACCTAGTGCAG | 40400 fluorescence intensity (a.u.)
GCTTTCACACGGATTTTAATTATTCTAGGCATAATTTAAACGGAGTCACCTAGTGCAG | 3800 fluorescence intensity (a.u.)
CAATATATGTTGTGGTAATTGGATGTAAATTGTACTAGAACGGAGTCACCTAGTGCAG | 9800 fluorescence intensity (a.u.)
TCACCATAATAAATTGAACATAAATTAGTTTAACCGAGGACGGAGTCACCTAGTGCAG | 21600 fluorescence intensity (a.u.)
ATACTCGATTATGGATTTTAATTATGAACAGGCAAAGTGGCGGAGTCACCTAGTGCAG | 7040 fluorescence intensity (a.u.)
TTAATGCAGACTAAATTGCCTATATATACCACGTCTAGCACGGAGTCACCTAGTGCAG | 5510 fluorescence intensity (a.u.)
GCAGTAGATAGATTAGCAGGGGCAGCATCTCTCACAGTCACGGAGTCACCTAGTGCAG | 24600 fluorescence intensity (a.u.)
GAAAATTAATTCAATACCTTAGACTTACTGGAAAGTACATCGGAGTCACCTAGTGCAG | 7650 fluorescence intensity (a.u.)
ATAATTAAGTCCTTTGATAACAAAGAACTTAATTGGGTCACGGAGTCACCTAGTGCAG | 8270 fluorescence intensity (a.u.)
TGCTAATCAAGTTCTAGAATTAGCACCTATATAACTAATTCGGAGTCACCTAGTGCAG | 4940 fluorescence intensity (a.u.)
TCAGATATCAATTTACTCTTTCCCAATAATTTTAAGGGTACGGAGTCACCTAGTGCAG | 13400 fluorescence intensity (a.u.)
TATAATTAAGAATCACAAGCATCTCATAACTTACCACCAGCGGAGTCACCTAGTGCAG | 8630 fluorescence intensity (a.u.)
ACCATGATAGAAGCTTTCAAGCACTTTGTCAAGGCTGTGGCGGAGTCACCTAGTGCAG | 3850 fluorescence intensity (a.u.)
TAGAAAATTATAAAATTATTATTTGTTTTATGTATGACACCGGAGTCACCTAGTGCAG | 17500 fluorescence intensity (a.u.)
GTACTAGCAATTAGCAAATCATTTCTATGCATTGATTTGACGGAGTCACCTAGTGCAG | 17600 fluorescence intensity (a.u.)
TTGTTATTACACATTGATGAGACATCAAACTATGCTGACTCGGAGTCACCTAGTGCAG | 4150 fluorescence intensity (a.u.)
CGTTTGATAGGCCATAGCCAATAATCTTCATGTTTCTTTCCGGAGTCACCTAGTGCAG | 4470 fluorescence intensity (a.u.)
ATAATAATTAAGTCTTCAATTTCACAATTAAAGTATTGAGCGGAGTCACCTAGTGCAG | 23100 fluorescence intensity (a.u.)

Sequence | binding signal
AAATAACTGGTTTGACTGCTGCCCCAAGAAGATTTGTGTGCGGAGTCACCTAGTGCAG | 18100 fluorescence intensity (a.u.)
GTCCCGTCGCAATCATGTTAACCTCATCCTCATTCGTCACCGGAGTCACCTAGTGCAG | 7050 fluorescence intensity (a.u.)
CGGTAAGATTGACGGTGAAGAGGCTGCGGAAAAGGAGTTCCGGAGTCACCTAGTGCAG | 15700 fluorescence intensity (a.u.)
ATATATATATATATATATATATATATATTAATGAATCGCTCGGAGTCACCTAGTGCAG | 29500 fluorescence intensity (a.u.)
TTTTATGAGATTATATTATAGATTTGACATTTATGGTGGACGGAGTCACCTAGTGCAG | 6040 fluorescence intensity (a.u.)
ACGCAATCATGCAATCATTTGCAATGAAATTTTCTGATATCGGAGTCACCTAGTGCAG | 20200 fluorescence intensity (a.u.)
GACCAACCATCATCAATCATCGCTAAGCCCACCTCGGAGACGGAGTCACCTAGTGCAG | 9540 fluorescence intensity (a.u.)
TTTTATTCCTAATTGGCCGTCAATCCCATCGGTGCAGTAACGGAGTCACCTAGTGCAG | 19600 fluorescence intensity (a.u.)
TCACACACTAATTAATGCCGTACAGAATGCTACGTACAGTCGGAGTCACCTAGTGCAG | 12600 fluorescence intensity (a.u.)
TGCAAACAACAAACTAATGCGTGATTAACCAAACGAATCACGGAGTCACCTAGTGCAG | 4430 fluorescence intensity (a.u.)
TAGTTAATCATTACATATTTGGATTGTTCACAAGCTTACCCGGAGTCACCTAGTGCAG | 9620 fluorescence intensity (a.u.)
CTTACAAAACTAATTACATAAATAAAAGCTAATTCACGAGCGGAGTCACCTAGTGCAG | 7710 ± 469 fluorescence intensity (a.u.)
AGATCAAATTTATTGGTGTATATTTGTCTGTATCATCCTACGGAGTCACCTAGTGCAG | 4630 fluorescence intensity (a.u.)
TATATCTGATTTGTATTAGAATTATTTATGATCAAAGTTCCGGAGTCACCTAGTGCAG | 9680 fluorescence intensity (a.u.)
TCCGATTGGATCAGCTATCCAATTTTGATGGGCCATTCGGCGGAGTCACCTAGTGCAG | 6840 fluorescence intensity (a.u.)
TCTTAACATCGATTGGTTGATGCATGCATGTACACACTTCCGGAGTCACCTAGTGCAG | 3140 fluorescence intensity (a.u.)
TTATATTGATGTTAATGAATCTAGACATATCTAGATTCATCGGAGTCACCTAGTGCAG | 14400 fluorescence intensity (a.u.)
TATTTAACTGGTAATTGGTCATAACCAAAGTACATAGATTCGGAGTCACCTAGTGCAG | 21000 fluorescence intensity (a.u.)
TAAGTTAATTTTGTTCCGTATGATTACAGTGACGGAATAGCGGAGTCACCTAGTGCAG | 17100 fluorescence intensity (a.u.)
ACTAGATAGATACCATGAAGAAATATAGTCTCAGAAACCACGGAGTCACCTAGTGCAG | 3570 fluorescence intensity (a.u.)
AATGTTGAAGATAATGGCAGGACCTAGTAACTGGTGCAAACGGAGTCACCTAGTGCAG | 4820 fluorescence intensity (a.u.)

Sequence | binding signal
TTCATGTAAATTGTAGTGCTAATGAGATGCTCATCTGTTGCGGAGTCACCTAGTGCAG | 4730 fluorescence intensity (a.u.)
TCTGATAGAATGTAAGCCACTCCATTCCATTCCATCCCATCGGAGTCACCTAGTGCAG | 33000 fluorescence intensity (a.u.)
TTTCATAATAGATGAAGAATAAATAAGATTGGTAGAGAAGCGGAGTCACCTAGTGCAG | 7440 fluorescence intensity (a.u.)
GCTAATTTGGGCACCATATTGGGCCTGATTTTGGTAAACACGGAGTCACCTAGTGCAG | 6980 fluorescence intensity (a.u.)
AGGATGATTAAGAATAAAACATTCGGCCTCGTGGCTATGTCGGAGTCACCTAGTGCAG | 17300 fluorescence intensity (a.u.)
ATTTGAAAATTGATTTGAGGACAGGGAATAGAGGTAGCATCGGAGTCACCTAGTGCAG | 18800 fluorescence intensity (a.u.)
ACTTAAACTGTGAATTTGCTGGCAGTGGCTAGAAGCTATTCGGAGTCACCTAGTGCAG | 7540 fluorescence intensity (a.u.)
AAATTACAAAACTTAAATTGCAATTTTACAAGCTCACACGCGGAGTCACCTAGTGCAG | 7820 fluorescence intensity (a.u.)
AAATTGAAAACCACTAGTTAATTAGACTAAGCTACTACCTCGGAGTCACCTAGTGCAG | 3580 fluorescence intensity (a.u.)
TGCTTGCGCGTGTATCTATCAATCAAGGGTTGGTAGCTAGCGGAGTCACCTAGTGCAG | 6620 fluorescence intensity (a.u.)
CCCCACCAATCACCGCAGCTAGAACTCCCTCCGTCCCGTTCGGAGTCACCTAGTGCAG | 11600 fluorescence intensity (a.u.)
ACAGCCTTGATTACGACCCCGGGCCCAATTAATCAACCCACGGAGTCACCTAGTGCAG | 17100 fluorescence intensity (a.u.)
TATTAGATTGATCTCTAAATGTCAGATTAATCTCTCTTGGCGGAGTCACCTAGTGCAG | 34000 fluorescence intensity (a.u.)
GTAATTATAATAATGAGTTACTGATCGAGAGGAGGAGAGGCGGAGTCACCTAGTGCAG | 7580 fluorescence intensity (a.u.)
CACAAAATCAAGCTATCAACATTCCTCATCTCGTTGATGCCGGAGTCACCTAGTGCAG | 3680 fluorescence intensity (a.u.)
AAATTAAAATTAATTTATAAGTAAAACTTTTGTAGATTTGCGGAGTCACCTAGTGCAG | 30300 fluorescence intensity (a.u.)
TCTGATTGGTACATGCTCACCTGGTTGGCTGGTTCTTCAGCGGAGTCACCTAGTGCAG | 53800 fluorescence intensity (a.u.)
CAGAAATAAACTAGTTTATTTTCTGGATTAACTATATATTCGGAGTCACCTAGTGCAG | 5890 fluorescence intensity (a.u.)
GGTCATTTATAAATTAAATTTTAGGCTTGGGAGGAGAACTCGGAGTCACCTAGTGCAG | 14800 fluorescence intensity (a.u.)
ACTTAATATATTCACTTAACACTACAAAGTCTTGTGGTGTCGGAGTCACCTAGTGCAG | 3610 fluorescence intensity (a.u.)
ATCTAACTTATATAGAGATTATAACGTAGTTACACTACAGCGGAGTCACCTAGTGCAG | 3550 fluorescence intensity (a.u.)

From publication PMC7819943, “Rice protein-binding microarrays: a tool to detect cis-acting elements near promoter regions in rice”
